Laboratory results: patent publication US20030180714A1 (Genentech, published 2003)

How the values were obtained:
[1] = molecular target: T1, anti-hGH monoclonal antibody 3F6.B1.4B1; assay: homolog shotgun scan, anti-hGH sort
T1 construct: also called anti-hGH antibody

[2] = molecular target: T1, anti-hGH monoclonal antibody 3F6.B1.4B1; assay: Ser shotgun scan, anti-hGH sort

| Binder | (wt/mut)antibody [1] | (wt/Ser)antibody [2] |
| --- | --- | --- |
| hGH F176Y (ligand, mature) not shown | 1.08 |  |
| hGH P48A (ligand, mature) not shown | 0.56 |  |
| hGH P61A (ligand, mature) not shown | 0.43 |  |
| hGH R64K (ligand, mature) not shown | 1.16 |  |
| hGH R178K (ligand, mature) not shown | 2.12 |  |
| hGH S62A (ligand, mature) not shown | 1.04 |  |
| hGH T175S (ligand, mature) not shown | 0.5 | 0.45 |
